Measured values: PubChem BioAssay AID1345083 (National Center for Advancing Translational Sciences (NCATS), 2018)
Hit rate of the full screen: of about 94,000 compounds, about 6,200 (6.6%) were called active. Inconclusive results, whose numbers are uncertain, are shown with a selection of clear calls. The call rests on the fitted dose curve; in most records, active means well fitted inhibition curve with a large enough effect; inconclusive means small, poorly fitted or top-dose-only effect; inactive means flat fitted curve, though single readings scatter. Where the call is inconclusive, the potency comes from a doubtful curve fit.

assay: Cytotoxic Profiling in HEK 293 Cell Line of Diverse Libraries Using Quantitative High-Throughput Screening; details: HEK 293 viability, ATP luminescence (CellTiter-Glo), 48-72 h; activity change, negative = cytotoxicity: at 115 µM (top of the series) unless noted; series mostly up to 115 µM; further: nearly all actives have a fitted effect of over 60% in size
Procedure, shortened: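 Viability of HEK 293 cells, plated at 250 cells/well, was judged by cellular ATP after compound treatment for 48 or 72 hr. Luminescence was imaged 10 min after CellTiter-Glo addition at room temperature.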
On the % scale 0 is the no-effect control and ±100 the full control effect; potency means the concentration at half of the fitted maximal effect; tags describe the fitted curve by direction and shape.

Row | Compound | Potency | activity change, negative = cytotoxicity | outcome
1 | O=C(CC1CCCN(c2cnn(CC3CC3)c(=O)c2)C1)NCc1ccc(F)cc1 (configuration not stated) | inconclusive: 31.6 µM [inhibitor, full curve, poor fit] |  | 
2 | O=C1Nc2ccccc2CC12CCN(CC1CC1)CC2 | inactive |  | 
3 | COC[C@@H]1CN(S(=O)(=O)c2ccc(F)cc2F)C[C@H]1C(N)=O |  | inactive: 1.67% | 
4 | Cc1ccc(C(=O)N2CCC3(CC2)C(=O)N(C)c2ccccc23)cc1C | inconclusive: 79.4 µM [inhibitor, partial curve, poor fit] |  | 
5 | C=CCNC(=O)N[C@H]1CO[C@H]2[C@@H]1OC[C@@H]2Nc1nccc(C2CCCC2)n1 | inconclusive: 100 µM [inhibitor, partial curve, poor fit] |  | 
6 | CN1CC(=O)N(c2ccccc2)Cc2c1ncnc2N1CCc2ccccc2C1 | inconclusive: 44.7 µM [inhibitor, partial curve, poor fit] |  | 
7 | O=[S+]([O-])(c1ccccc1)N1CCCN(c2ccc3nnc(C4CC4)n3n2)CC1 | inconclusive: 50.1 µM [inhibitor, partial curve, poor fit] |  | 
8 | CCCN1C(=O)NC(Cc2nc(-c3cccnn3)no2)C1=O (configuration not stated) |  | inactive: -0.719% | 
9 | CC(C)CN(CC1CN(C(=O)c2ccc(Cl)c(Cl)c2)CCO1)C(=O)c1ccc(F)cc1 (configuration not stated) | inconclusive: 50.1 µM [inhibitor, partial curve, poor fit] |  | 
10 | Fc1cccc(CN2CC[C@@H]3CN(Cc4ccccc4)[C@@H]3C2)c1 | inconclusive: 20 µM [inhibitor, full curve] |  | 
11 | CCN1C(=O)COC[C@@H]1[C@H](O)c1ccc(NC(=O)c2cc(C)nn2C)cc1 | inconclusive: 8.91 µM [inhibitor, full curve, poor fit] |  | 
12 | CCC(=O)N1CCC2(CC1)OCC(C(=O)NCc1ccccc1)N2C(=O)c1ccc(C)cc1 (configuration not stated) | inconclusive: 100 µM [inhibitor, single point] |  | 
13 | N#Cc1cccc(-c2cn3c(n2)N(C(=O)c2cccc(F)c2)CCC3)c1 | inconclusive: 50.1 µM [inhibitor, partial curve, poor fit] |  | 
14 | O=C1[C@@H]2C[C@@H](O)CN2C2(CN(Cc3cccc(F)c3)C2)C(=O)N1Cc1ccccc1 |  | inactive: -6.33% [at 172 µM] | 
15 | Cc1ccc([C@H]2C[C@@H](O)[C@@H](O)[C@@H]2NCc2ccccc2)cc1 | inconclusive: 79.4 µM [inhibitor, partial curve, poor fit] |  | 
16 | Fc1ccc(OCc2nc(C3CCCN3)no2)cc1 (configuration not stated) |  | inactive: 2.55% | 
17 | Cc1oc(-c2cccc(Cl)c2)nc1CN1CCCC(F)(F)C1 | inconclusive: 25.1 µM [inhibitor, full curve, poor fit] |  | 
18 | CCCc1noc(-c2cn(C3CCN(C(=O)c4ccsc4)CC3)nn2)n1 | inconclusive: 89.1 µM [inhibitor, single point] |  | 
19 | Cc1cc(C)n(CC(=O)N[C@@H]2CN(Cc3ccccc3)C[C@H]2CN(C)C)c(=O)n1 |  | inactive: 2.69% | 
20 | CC(Oc1cccc(Cl)c1)C(=O)NCc1nnc2ccc(-c3ccccc3)nn12 (configuration not stated) | inconclusive: 89.1 µM [inhibitor, single point] |  | 
21 | CC(C)c1noc(C2Cc3ccccc3N2C(=O)Nc2ccc3c(c2)OCCO3)n1 (configuration not stated) | inconclusive: 35.5 µM [inhibitor, partial curve, poor fit] |  | 
22 | CC(C)(O)C1CCCN(C(=O)c2cc(COc3ccccc3F)[nH]n2)C1 (configuration not stated) | inconclusive: 79.4 µM [inhibitor, partial curve] |  | 
23 | Cc1ccc(C)c(OCC(=O)c2ccc3c(c2)N(C(C)C(=O)N2CCCC2)C(=O)CO3)c1 (configuration not stated) | inconclusive: 50.1 µM [inhibitor, partial curve, poor fit] |  | 

Row | Compound | Potency | activity change, negative = cytotoxicity | outcome
24 | O=C(c1ccc(=O)[nH]c1)N1CCCC(CCc2cccc(C(F)(F)F)c2)C1 (configuration not stated) | inconclusive: 50.1 µM [inhibitor, partial curve, poor fit] |  | 
25 | OC(c1ccccc1)c1cn(C2CCN(Cc3cnc4ccccc4c3)CC2)nn1 (configuration not stated) |  | inactive: -24.9% | 
26 | COc1ccc(C(=O)N2CCCC(n3cc(-c4nc(C(C)C)no4)nn3)C2)cc1F (configuration not stated) | inconclusive: 89.1 µM [inhibitor, single point] |  | 
27 | CCOC(=O)c1ccc(NC(=O)N2Cc3[nH]cnc3C[C@H]2c2nc(-c3cccc(C)c3)no2)cc1 | inconclusive: 44.7 µM [inhibitor, partial curve, poor fit] |  | 
28 | COc1ccccc1Nc1ccnc(N2CCC(C(=O)NCC(F)F)CC2)n1 | inconclusive: 50.1 µM [inhibitor, partial curve, poor fit] |  | 
29 | O=C(Nc1ccc(F)cc1)c1cn2cc(-c3cccc(C(F)(F)F)c3)sc2n1 | inconclusive: 35.5 µM [inhibitor, partial curve, poor fit] |  | 
30 | Cc1cccc(CC(=O)N2CCC3(CC2)CCC(O)(CN(C)C)CC3)c1 |  | inactive: -26.8% | 
31 | CCOc1ccc(NC(=O)Cn2c(=O)n(-c3ccccc3)c(=O)c3c2cc(C)n3C)cc1 |  | inactive: -6.19% | 
32 | NC(=O)c1cccc2[nH]c([C@H]3CCN(Cc4cccc(Cl)c4)C3)nc12 | active: 56.2 µM |  | 
33 | Cn1cccc1CN1CCC2(C1)NC(=O)c1ccccc1CO2 (configuration not stated) | inconclusive: 126 µM [inhibitor, partial curve, poor fit] |  | 
34 | O=C1NC(=NC2CCCC2)C2(CCN([S+](=O)([O-])c3cccc(C(F)(F)F)c3)CC2)N1c1cccnc1 |  |  | inactive
35 | CCN(CC1CCCO1)C(=O)c1ccccc1OC1CCN(C(=O)c2cccnc2)CC1 (configuration not stated) |  | inactive: -9.32% | 
36 | FC(F)(F)CN1C2CCC1CN(c1cnccn1)C2 |  |  | inactive [at 172 µM]
37 | CN(C)C[C@@H]1CN(Cc2ccccc2)C[C@H]1NC(=O)c1cn(C)cn1 |  | inactive: 2.23% | 
38 | CNC(=O)c1cc(C2CC2)nc2onc(C3CCN(C(=O)C4CCCC4)C3)c12 (configuration not stated) |  | inactive: -22.9% | 
39 | CCc1cc(=O)n(CC(=O)Nc2ccccc2F)c(-c2cccc(F)c2)n1 | inconclusive: 79.4 µM [inhibitor, single point] |  | 
40 | O=C(Cc1cccs1)N1CCCN(CCc2ccccc2)c2ccccc21 | inconclusive: 44.7 µM [inhibitor, partial curve, poor fit] |  | 
41 | CC1(C(=O)NC2COC2)CN(Cc2ccccc2)Cc2ccc(Nc3ccccc3)nc21 (configuration not stated) | active: 89.1 µM |  | 
42 | CC[C@H]1CN(S(=O)(=O)c2ccc(OC)cc2)CC[C@H]1CC(=O)N1CCOCC1 | inconclusive: 112 µM [inhibitor, single point] |  | 
43 | COCCn1ncc(N2CCC(C(=O)NCc3nc4ccccc4n3C)C2)cc1=O (configuration not stated) | inconclusive: 89.1 µM [inhibitor, single point] |  | 
44 | COC[C@@H]1CN(S(=O)(=O)c2c(C)noc2C)C[C@H]1c1ccncc1 | inconclusive: 31.6 µM [inhibitor, single point] |  | 
45 | CC(C)c1noc(C2CCCN(Cc3cn(C(C)C)c4ccccc34)CCC(=O)NCC2)n1 (configuration not stated) | active: 39.8 µM |  | 
46 | Cc1ccccc1C(=O)N1CCC2(CC1)C(=O)NCN2Cc1ccc(Cl)cc1 | inconclusive: 89.1 µM [inhibitor, partial curve, poor fit] |  | 

Row | Compound | Potency | activity change, negative = cytotoxicity | outcome
47 | Cc1c(CC(=O)NC(C)C2CC2)c2c(n1Cc1ccccc1F)CCCC2=O (configuration not stated) | inconclusive: 50.1 µM [inhibitor, partial curve, poor fit] |  | 
48 | COc1ccc(CN2CCc3nc(C(=O)NCc4cccc(F)c4)oc3CC2)cc1OC | inconclusive: 44.7 µM [inhibitor, partial curve, poor fit] |  | 
49 | COCCN1Cc2ccc(NCc3ccccc3)nc2C(C)(C(=O)NCc2ccccc2)C1 (configuration not stated) | active: 50.1 µM |  | 
50 | CO[C@H]1C(=O)N(C(C)C)[C@H]1C1CCNCC1 |  | inactive: 2.07% | 
51 | COc1ccc(-c2cc(C(=O)O)cc(S(=O)(=O)N3CCN(C)CC3)c2)cc1 |  | inactive: -1.24% | 
52 | CN1c2cc(C(=O)Nc3cc(F)ccc3F)ccc2C(=O)N2CCCCCC21 (configuration not stated) | inconclusive: 50.1 µM [inhibitor, partial curve, poor fit] |  | 
53 | FC(F)(F)c1ccc(CN2CCNc3cc(Nc4cccnc4)ncc3C2)cc1 | active: 31.6 µM |  | 
54 | CN1CC(=O)N(C2CCNCC2)Cc2c(NCC3CCCCCC3)ncnc21 |  | inactive: -28.8% | 
55 | O=C1NCc2ccccc2CC12CCCCN2CC1CCCC1 (configuration not stated) |  | inactive: -14.8% | 
56 | CN(C)C[C@@H]1CN(Cc2ccccn2)C[C@H]1NS(=O)(=O)c1cccc(F)c1 |  | inactive: -2.73% | 
57 | CC1(C)[C@H](Cc2cc(CCO)on2)C[C@@H]1NCC1CC1 |  | inactive: -3.06% [at 230 µM] | 
58 | CN(CCc1noc(C2CN(Cc3ccc(Cl)c(F)c3)C2)n1)S(C)(=O)=O | active: 39.8 µM |  | 
59 | COc1ccc(CNC(=O)c2ccc3c(c2)N(C)C2CCCCN2C3=O)c(OC)c1 (configuration not stated) |  | inactive: 1.55% | 
60 | COC(=O)CO[C@@H]1CO[C@H]2[C@@H]1OC[C@@H]2n1cc(-c2ccccn2)nn1 |  |  | inactive [at 172 µM]
61 | Cc1ccc(C(N)=O)cc1-c1cc(NCc2cccnc2)nc2[nH]ccc12 | inconclusive: 44.7 µM [inhibitor, partial curve, poor fit] |  | 
62 | CCc1cccc2c(C(CC(=O)NCc3ccc(F)cc3)c3cccc(OC)c3OC)c[nH]c12 (configuration not stated) | inconclusive: 50.1 µM [inhibitor, partial curve, poor fit] |  | 
63 | COc1ccc(-c2ccc(C(=O)NC3CCOCC3)cc2)nn1 |  | inactive: -3.01% [at 172 µM] | 
64 | Cc1ccc(C(=O)N2CCc3[nH]nc(C(=O)NCCCc4ccccc4)c3C2)cc1 | inconclusive: 70.8 µM [inhibitor, partial curve] |  | 
65 | O=C(c1ccc(Cl)cc1)N1CCC(N2CCNC2=O)CC1 |  |  | inactive
66 | Cc1ccc(C(=O)N2CCN(C(=O)c3nnn4c3COC(c3ccc(Cl)cc3)C4)CC2)cc1F (configuration not stated) |  | inactive: -15.9% | 
67 | O=C1Nc2ccc(-c3ccccc3)cc2C(=O)N2CCN(C(=O)c3cccc(F)c3)C[C@H]12 | inconclusive: 89.1 µM [inhibitor, partial curve, poor fit] |  | 
